Reference: publication PMC7482433
These are yes or no findings as the source states them, for the method shown. For some of these results: In cells and extracts the contact can be indirect. Some binding calls cover weakened binding; strength is not graded here. For some of these results: Sequences can lack the tags named with a protein. Values belong to the molecule of their own block, whether it stands above or below them.

Sequences of proteins named here, by UniProt entry; tags and fusion partners are left off.
UniProt Q4ZIN3: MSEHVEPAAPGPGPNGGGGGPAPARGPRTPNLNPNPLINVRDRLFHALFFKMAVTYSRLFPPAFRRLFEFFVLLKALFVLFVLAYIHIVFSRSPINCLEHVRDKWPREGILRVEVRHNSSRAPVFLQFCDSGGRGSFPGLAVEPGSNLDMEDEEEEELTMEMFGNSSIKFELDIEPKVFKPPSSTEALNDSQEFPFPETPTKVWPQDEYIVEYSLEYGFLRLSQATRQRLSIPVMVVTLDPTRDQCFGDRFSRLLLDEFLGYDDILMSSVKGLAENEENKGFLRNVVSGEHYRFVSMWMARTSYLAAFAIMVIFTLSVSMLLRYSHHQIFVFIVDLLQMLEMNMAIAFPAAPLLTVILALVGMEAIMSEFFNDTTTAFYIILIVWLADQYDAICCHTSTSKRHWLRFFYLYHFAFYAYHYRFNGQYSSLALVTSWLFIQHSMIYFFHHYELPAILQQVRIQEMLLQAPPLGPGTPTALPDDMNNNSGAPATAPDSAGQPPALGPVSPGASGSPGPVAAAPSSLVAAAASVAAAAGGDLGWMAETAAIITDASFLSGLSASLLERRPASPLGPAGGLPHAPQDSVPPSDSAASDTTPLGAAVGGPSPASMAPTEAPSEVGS
UniProt Q86TM6: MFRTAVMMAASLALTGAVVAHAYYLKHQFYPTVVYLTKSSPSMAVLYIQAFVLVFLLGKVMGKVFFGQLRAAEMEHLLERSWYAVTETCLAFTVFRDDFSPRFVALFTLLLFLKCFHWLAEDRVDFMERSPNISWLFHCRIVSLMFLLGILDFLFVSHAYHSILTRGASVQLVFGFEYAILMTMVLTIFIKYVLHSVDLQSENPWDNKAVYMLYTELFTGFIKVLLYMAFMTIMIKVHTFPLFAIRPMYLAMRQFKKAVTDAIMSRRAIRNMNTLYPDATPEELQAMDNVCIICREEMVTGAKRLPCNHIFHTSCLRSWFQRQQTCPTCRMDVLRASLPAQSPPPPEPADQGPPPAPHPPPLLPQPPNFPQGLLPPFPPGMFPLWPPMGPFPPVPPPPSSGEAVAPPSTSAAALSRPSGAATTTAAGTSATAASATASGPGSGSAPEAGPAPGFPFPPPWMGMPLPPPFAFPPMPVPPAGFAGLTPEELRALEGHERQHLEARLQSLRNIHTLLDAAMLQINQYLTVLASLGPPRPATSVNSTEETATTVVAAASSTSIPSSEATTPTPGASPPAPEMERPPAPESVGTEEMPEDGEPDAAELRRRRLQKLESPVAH
UniProt Q71RG4: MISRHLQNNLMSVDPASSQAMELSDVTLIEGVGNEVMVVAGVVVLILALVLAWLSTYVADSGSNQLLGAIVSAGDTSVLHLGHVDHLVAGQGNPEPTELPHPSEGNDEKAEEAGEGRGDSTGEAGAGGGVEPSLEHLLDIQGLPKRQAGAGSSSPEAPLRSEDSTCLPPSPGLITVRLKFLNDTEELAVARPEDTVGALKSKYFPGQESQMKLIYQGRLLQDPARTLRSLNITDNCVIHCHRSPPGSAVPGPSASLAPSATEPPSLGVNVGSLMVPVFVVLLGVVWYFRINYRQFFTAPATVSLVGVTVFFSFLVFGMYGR
UniProt Q99942: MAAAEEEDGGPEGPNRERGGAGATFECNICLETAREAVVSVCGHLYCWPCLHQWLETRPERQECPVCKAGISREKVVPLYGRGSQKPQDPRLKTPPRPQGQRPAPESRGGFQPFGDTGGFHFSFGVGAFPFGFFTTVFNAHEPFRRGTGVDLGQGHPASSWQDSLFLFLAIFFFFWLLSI

Experiments:
[1] = target: endogenously tagged Membralin-mNeonGreen (human (endogenous in HeLa)) (UniProt Q4ZIN3); assay: co-IP; mNG-Trap immunoprecipitation of MBRL-mNG from size exclusion fraction 9 of solubilised HeLa membranes, western blotting
[2] = target: endogenously tagged Membralin-mNeonGreen (human (endogenous in HeLa)) (UniProt Q4ZIN3); assay: SEC; crude membranes of MBRL-mNG HeLa cells solubilised in 1% DDM + 0.1% CHS, Superose 6 10/300 GL in 50 mM Tris-HCl pH 7.4, 150 mM NaCl, 0.03% DDM, 0.003% CHS; fractions analysed by western blotting
[3] = target: MBRL-3xFLAG (human) (UniProt Q4ZIN3); assay: co-IP; co-precipitation of MBRL with RNF185 and TMUBs in cells lacking TMUBs or RNF185 (Figure S4H; the bait was not shown)
[4] = target: MBRL tagged with streptavidin binding peptide (human) (UniProt Q4ZIN3); assay: co-IP; sequential immunoprecipitation from RNF185/MBRL double-KO cells co-transduced with FLAG-RNF185 and MBRL-SBP
[5] = target: endogenously tagged Membralin-mNeonGreen (human (endogenous in HeLa)) (UniProt Q4ZIN3); assay: co-IP; mNG-Trap pull-down of endogenously tagged MBRL-mNG from HeLa lysate (1% DMNG), western blotting; HRD1-mNG as specificity control
[6] = target: T1, 3xFLAG-RNF185 (human) (UniProt Q96GF1); assay: co-IP; sequential immunoprecipitation from RNF185/MBRL double-KO cells co-transduced with FLAG-RNF185 and MBRL-SBP
T1 sequence: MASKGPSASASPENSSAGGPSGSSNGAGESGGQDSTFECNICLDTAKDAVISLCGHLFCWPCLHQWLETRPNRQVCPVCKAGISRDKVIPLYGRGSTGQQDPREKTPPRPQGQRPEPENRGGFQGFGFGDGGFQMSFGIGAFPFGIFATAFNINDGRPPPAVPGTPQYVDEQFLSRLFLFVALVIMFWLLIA

[7] = target: endogenously tagged Membralin-mNeonGreen (human (endogenous in HeLa)) (UniProt Q4ZIN3); assay: co-IP; mNG-Trap pull-down of endogenously tagged MBRL-mNG from HeLa lysate (1% DMNG), western blotting; HRD1-mNG as specificity control; remark: listed apart in the source

binding [1]: no binding
Molecule: endogenous HRD1 (from UniProt Q86TM6 1-617)

binding [2]: binds
binding [3]: binds
binding [1]: binds
binding [4]: binds
binding [5]: binds
Molecule: TMUB2 (from UniProt Q71RG4 1-321)

binding [5]: binds
Molecule: endogenously tagged Membralin-mNeonGreen (from UniProt Q4ZIN3 1-620)

binding [1]: no binding
binding [5]: no binding
Molecule: RNF5 (from UniProt Q99942 1-180)

binding [6]: binds
Molecule: MBRL tagged with streptavidin binding peptide (from UniProt Q4ZIN3 1-620)

binding [7]: binds
B1: Erlin1 (protein, UniProt O75477 1-348)
chain: MNMTQARVLVAAVVGLVAVLLYASIHKIEEGHLAVYYRGGALLTSPSGPGYHIMLPFITTFRSVQTTLQTDEVKNVPCGTSGGVMIYIDRIEVVNMLAPYAVFDIVRNYTADYDKTLIFNKIHHELNQFCSAHTLQEVYIELFDQIDENLKQALQKDLNLMAPGLTIQAVRVTKPKIPEAIRRNFELMEAEKTKLLIAAQKQKVVEKEAETERKKAVIEAEKIAQVAKIRFQQKVMEKETEKRISEIEDAAFLAREKAKADAEYYAAHKYATSNKHKLTPEYLELKKYQAIASNSKIYFGSNIPNMFVDSSCALKYSDIRTGRESSLPSKEALEPSGENVIQNKESTG

binding [2]: binds
binding [3]: binds
binding [1]: binds
binding [7]: binds
B2: endogenous RNF185 (protein, UniProt Q96GF1 1-192)
chain: T1 sequence

binding [7]: binds
B3: Erlin2 (protein, UniProt O94905 1-339)
chain: MAQLGAVVAVASSFFCASLFSAVHKIEEGHIGVYYRGGALLTSTSGPGFHLMLPFITSYKSVQTTLQTDEVKNVPCGTSGGVMIYFDRIEVVNFLVPNAVYDIVKNYTADYDKALIFNKIHHELNQFCSVHTLQEVYIELFDQIDENLKLALQQDLTSMAPGLVIQAVRVTKPNIPEAIRRNYELMESEKTKLLIAAQKQKVVEKEAETERKKALIEAEKVAQVAEITYGQKVMEKETEKKISEIEDAAFLAREKAKADAECYTAMKIAEANKLKLTPEYLQLMKYKAIASNSKIYFGKDIPNMFMDSAGSVSKQFEGLADKLSFGLEDEPLETATKEN
